# Test results: the supplement of paper PMC11369174, “Proteome-scale characterisation of motif-based interactome rewiring by disease mutations” (Molecular Systems Biology, 2024)
# This is one part of the list. These are enrichments in a pooled selection; single values are uncertain.
# T1: PEX14_Pex14__O75381_16_84
# T1 chain: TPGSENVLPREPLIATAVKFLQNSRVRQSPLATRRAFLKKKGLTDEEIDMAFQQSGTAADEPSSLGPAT
# Target: T1, PEX14_Pex14__O75381_16_84
# Test: mean normalised NGS count of phage-displayed peptide after selection on bait (% of reads); baits are purified protein domains named by gene / domain / UniProt id / residues; peptides come from disordered regions of human proteins; higher = stronger enrichment / binding
# Conditions: replicate selections in which the peptide was seen: 2
row,Binder,mean normalised NGS count
1,LIEFRVLAGEWIETMW [SCN9A 942-957 mut P35498.V944E],0.472
2,TFSEELANLYHHVWMA [BICD2 529-544 mut Q8TD16.C542W],0.157
3,LIEFRVLAGEWIETMW [SCN2A 942-957 mut P35498.V944E],0.472
4,LAMLRSLDLEGLWSTL [BRAT1 773-788 mut Q6PJG6.R785W],0.00276
5,LEGLWSTLAESSDHVE [BRAT1 781-796 mut Q6PJG6.R785W],0.00844
6,LIEFRVLAGEWIETMW [SCN8A 942-957 mut P35498.V944E],0.472
7,LIEFRVLAGEWIETMW [SCN3A 942-957 mut P35498.V944E],0.472
8,DGGEEGMDEQYWQIAN [NACC1 287-302 mut Q96RE7.R298W],0.00384
9,TVGLAQQWDQLDQLGM [SPTAN1 2287-2302 wt],0.00546
10,QTQQHSGWVSQFNPMN [TAB2 228-243 wt],0.0321

# Same assay, conditions: replicate selections in which the peptide was seen: 3
row,Binder,mean normalised NGS count
1,LRTDLTEAWVQVWFQN [ALX3 188-203 mut O95076.R196W],0.0365
2,EQKEMMEKAWEAYNQG [PRPF6 720-735 mut O94906.R729W],0.0976
3,EAGLVEEFLLTDNSAI [POLG 672-687 mut P54098.A676V],0.0259
4,ADALWWGLITLTTNGY [KCNQ2 265-280 mut O43526.I278N],0.0609
5,EFESRLADALQELWAQ [LMNA 236-251 mut P02545.R249W],0.016
6,DILEHDWREVQDSRQE [CARD10 319-334 mut Q9BWT7.A328V],0.0324
7,SLDYGSAWAAAAAQAR [AR 392-407 mut P10275.P392S],0.357
8,AQSRFIFFVDIWTTVL [KCNJ1 58-73 wt],1.88
9,KVKEPEPQYFRFEGVW [KMT2D 1576-1591 wt],0.103
10,EAVSVQWEEEYEEYEE [TTN 10662-10677 mut Q8WZ42.R10668W],0.0776
11,TLEEEAVSVQWEEEYE [TTN 10658-10673 mut Q8WZ42.R10668W],0.0559

# Same assay, conditions: replicate selections in which the peptide was seen: 4
row,Binder,mean normalised NGS count
1,LATWKQEYVDYSESAK [DKC1 409-424 mut O60832.P409L],0.0462
2,SWLASYLDKVQALEEA [KRT9 162-177 mut P35527.R163W],0.435
3,LQLEWISVYYNEASSH [TUBB3 42-57 mut Q13509.R46W],0.119
4,HSEFSEVMNEIWASDQ [HADHA 69-84 wt],0.0655
5,ELANLYHHVWMANNET [BICD2 533-548 mut Q8TD16.C542W],0.0202
6,RSLDLEGLWSTLAESS [BRAT1 777-792 mut Q6PJG6.R785W],0.0261
7,MPAWGALFLLWATAEA [GP9 1-16 wt],0.0735
8,PATWKQEYVDYSESAK [DKC1 409-424 wt],0.0457
9,TDSIPATWKQEYVDYS [DKC1 405-420 mut O60832.T408I],0.0411
10,KLENRLDYGSAWAAAA [AR 388-403 mut P10275.P392R],0.021
11,VAANKSQGWLAELLRW [SATB2 508-523 wt],2.05
12,DSHDIPWVSQYRLAAH [COX15 211-226 mut Q7KZN9.R217W],0.0214
13,MNLDLLQEHSDEAIWA [ABCC6 1358-1373 wt],0.0145

# Same assay, conditions: replicate selections in which the peptide was seen: 6
row,Binder,mean normalised NGS count
1,YDEVTAFLGEWWPFQR [SLC22A5 4-19 mut O76082.G15W],0.41
2,EQLALRTDLTEAWVQV [ALX3 184-199 mut O95076.R196W],3.08
3,KLENPLDYGSAWAAAA [AR 388-403 wt],1.42
4,ELHSEFSEVMNEIWAS [HADHA 67-82 wt],0.367
5,MRDYDEVTAFLGEWWP [SLC22A5 1-16 mut O76082.G15W],0.34
6,TTDFPGNYSGYDDAWD [POLR1C 26-41 wt],1.31
7,TTDFSGNYSGYDDAWD [POLR1C 26-41 mut O15160.P30S],4.92
8,ITDFPGNYSGYDDAWD [POLR1C 26-41 mut O15160.T26I],1.13
9,RITDDQLRVLWQYFDI [ZFHX3 2151-2166 mut Q15911.R2161W],27.5
10,GDSDLQLEWISVYYNE [TUBB3 38-53 mut Q13509.R46W],1.72
11,ALQELWAQHEDQVEQY [LMNA 244-259 mut P02545.R249W],0.141
12,TADFPGNYSGYDDAWD [POLR1C 26-41 mut O15160.T27A],0.842
13,APGEPDWMGRLWVTFS [CACNA1H 768-783 mut O95180.G773D],0.19

# Same assay, conditions: replicate selections in which the peptide was seen: 5
row,Binder,mean normalised NGS count
1,LDLLQEHSDEAIWAAL [ABCC6 1360-1375 wt],1.54
2,TTDFPGIYSGYDDAWD [POLR1C 26-41 mut O15160.N32I],0.163
3,DEVTAFLGEWGLFQRL [SLC22A5 5-20 mut O76082.P16L],0.142
4,TEHSTVGLAQQWDQLD [SPTAN1 2283-2298 wt],0.0432
5,TDSTLATWKQEYVDYS [DKC1 405-420 mut O60832.P409L],0.344
6,ELSNALMAAEWFKEHR [TSC2 1230-1245 mut P49815.R1240W],0.0695
7,DRYGEVWRGLWHGESV [ACVRL1 211-226 mut P37023.G211D],0.0841
8,TDSTPATWKQEYVDYS [DKC1 405-420 wt],0.257
9,YDEVTAFLGEWGLFQR [SLC22A5 4-19 mut O76082.P16L],0.545
10,QQRAAPGEPDWMGRLW [CACNA1H 764-779 mut O95180.G773D],7.47

# Target: PPIA_full-length__P62937_1_165, P62937
# Test: as above
# Conditions: replicate selections in which the peptide was seen: 3
# Sequence of PPIA_full-length__P62937_1_165, P62937 (P62937 whole entry, looked up): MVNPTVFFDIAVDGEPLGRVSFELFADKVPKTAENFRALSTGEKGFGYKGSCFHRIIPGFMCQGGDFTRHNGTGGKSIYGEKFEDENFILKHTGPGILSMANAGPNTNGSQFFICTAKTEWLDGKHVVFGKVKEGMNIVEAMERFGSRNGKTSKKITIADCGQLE
row,Binder,mean normalised NGS count
1,DSHDIPWVSQYRLAAH [COX15 211-226 mut Q7KZN9.R217W],0.0322
